Reference: the supplement of paper PMC4967469
The IC50 comes from the fitted curve, where viability falls to half of the control; fits outside the tested doses are given as limits. AUC sums up the same curve from the lowest dose to the 256-fold higher top dose; values near 1 show little effect. For some assays here: The top dose, if marked as inferred, was derived from the fitted curves, not read from the paper.

Legend:
Test in all cases: Viability of human cancer cell lines after 72 h of drug (GDSC screen)
GSK-650394 = compound: O=C(O)c1ccc(-c2c[nH]c3ncc(-c4ccccc4)cc23)cc1C1CCCC1 [GSK-650394]; conditions: top dose 16 µM; top dose inferred
Description: (§1)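 Human cancer cell lines in 384-well plates, medium with 10% serum, drug for 72 h over a 256-fold dose range (nine 2-fold or five 4-fold steps up to the top dose). Adherent lines were fixed and stained with the nucleic acid dye Syto60, suspension lines read with resazurin; signal relative to control wells, capped at 0 and 100%. One two-parameter sigmoid per drug and line, fitted in a mixed model over all curves with the slope shared within a line.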

Bexarotene = compound: C=C(c1ccc(C(=O)O)cc1)c1cc2c(cc1C)C(C)(C)CCC2(C)C [Bexarotene]; conditions: top dose 8 µM
Description: as §1

NPK76-II-72-1 = compound: COc1cc(C(=O)NC2CCN(C)CC2)ccc1Nc1ncc2c(n1)N(C1CCCC1)C(C)CC(=O)N2C [NPK76-II-72-1]; conditions: top dose 10.24 µM; top dose inferred
Description: as §1

XAV 939 = compound: Oc1nc(-c2ccc(C(F)(F)F)cc2)nc2c1CSCC2 [XAV 939]; conditions: top dose 5 µM; top dose inferred
Description: as §1

BMS-345541 = compound: Cc1ccc2nc(NCCN)c3ncc(C)n3c2c1 [BMS-345541]; conditions: top dose 16 µM
Description: as §1

AZD7762 = compound: NC(=O)Nc1cc(-c2cccc(F)c2)sc1C(=O)N[C@H]1CCCNC1 [AZD7762]; conditions: top dose 2 µM
Description: as §1

YK 4-279 = compound: COc1ccc(C(=O)CC2(O)C(=O)Nc3c(Cl)ccc(Cl)c32)cc1 [YK 4-279]; conditions: top dose 10 µM
Description: as §1

| Cell Line | AUC (GSK-650394) | IC50 (GSK-650394) [µM] | AUC (Bexarotene) | IC50 (Bexarotene) [µM] | AUC (NPK76-II-72-1) | IC50 (NPK76-II-72-1) [µM] | AUC (XAV 939) | IC50 (XAV 939) [µM] | AUC (BMS-345541) | IC50 (BMS-345541) [µM] | AUC (AZD7762) | IC50 (AZD7762) [µM] | AUC (YK 4-279) | IC50 (YK 4-279) [µM] |
| --- | --- | --- | --- | --- | --- | --- | --- | --- | --- | --- | --- | --- | --- | --- |
| A101D (melanoma, adherent) | 0.688 | 3.82 | 0.965 | > 8 | 0.908 | > 10.2 | 0.936 | > 5 | 0.974 | > 16 | 0.704 | 0.542 |  |  |
| A549 (lung adenocarcinoma, adherent) |  |  |  |  |  |  | 0.888 | > 5 |  |  | 0.642 | 0.326 |  |  |
| A2058 (melanoma, adherent) | 0.843 | 9.59 | 0.947 | > 8 | 0.949 | > 10.2 | 0.966 | > 5 | 0.899 | > 16 | 0.704 | 0.437 |  |  |
| AGS (stomach, adherent) | 0.804 | 7.04 | 0.961 | > 8 | 0.927 | > 10.2 |  |  | 0.886 | 14.5 | 0.711 | 0.458 |  |  |
| CAPAN-1 (pancreas, adherent) | 0.923 | > 16 | 0.928 | > 8 | 0.887 | > 10.2 | 0.985 | > 5 | 0.921 | > 16 | 0.684 | 0.434 |  |  |
| CHP-134 (neuroblastoma, suspension) |  |  |  |  | 0.658 | 2 |  |  | 0.908 | > 16 |  |  |  |  |
| CHP-212 (neuroblastoma, adherent) | 0.878 | 14.1 | 0.871 | 6.59 | 0.988 | > 10.2 | 0.986 | > 5 | 0.884 | 14.9 | 0.502 | 0.127 |  |  |
| COLO-829 (melanoma, adherent) | 0.979 | > 16 | 0.871 | > 8 | 0.921 | > 10.2 | 0.879 | > 5 | 0.953 | > 16 |  |  |  |  |
| COR-L32 (small cell lung carcinoma, suspension) |  |  |  |  |  |  | 0.913 | > 5 |  |  |  |  | 0.958 | > 10 |
| COR-L303 (small cell lung carcinoma, suspension) |  |  |  |  | 0.687 | 2.1 |  |  | 0.894 | > 16 |  |  |  |  |
| COR-L311 (small cell lung carcinoma, suspension) |  |  |  |  | 0.809 | 5.8 |  |  | 0.708 | 4.04 |  |  |  |  |
| D-423MG (glioma, adherent) |  |  |  |  | 0.828 | 8.26 | 0.96 | > 5 | 0.828 | 13 | 0.645 | 0.346 |  |  |
| D-566MG (glioma, adherent) |  |  |  |  | 0.943 | > 10.2 | 0.89 | > 5 | 0.907 | > 16 | 0.554 | 0.175 |  |  |
| DOHH-2 (B-cell lymphoma, suspension) | 0.888 | > 16 | 0.973 | > 8 |  |  |  |  |  |  | 0.54 | 0.161 |  |  |
| DOV13 (ovary, adherent) |  |  |  |  | 0.943 | > 10.2 | 0.905 | > 5 | 0.92 | > 16 | 0.589 | 0.227 |  |  |
| FLO-1 (oesophagus, adherent) |  |  |  |  | 0.879 | > 10.2 | 0.941 | > 5 | 0.838 | > 16 | 0.588 | 0.243 |  |  |
| H2810 (mesothelioma, adherent) |  |  |  |  |  |  | 0.976 | > 5 |  |  |  |  |  |  |
| HCT-15 (large intestine, adherent) | 0.668 | 3.02 | 0.9 | > 8 | 0.976 | > 10.2 | 0.985 | > 5 | 0.925 | > 16 | 0.901 | > 2 |  |  |
| HCT-116 (large intestine, adherent) | 0.908 | > 16 |  |  | 0.772 | 3.75 | 0.985 | > 5 | 0.878 | 14.8 | 0.847 | 1.36 |  |  |
| Hey (ovary, adherent) |  |  |  |  | 0.946 | > 10.2 | 0.9 | > 5 | 0.885 | 15.8 | 0.557 | 0.177 |  |  |
| JHOS-2 (ovary, adherent) |  |  |  |  | 0.889 | > 10.2 | 0.784 | 2.51 | 0.916 | > 16 | 0.74 | 0.689 |  |  |
| JHOS-4 (ovary, adherent) |  |  |  |  |  |  | 0.863 | > 5 |  |  | 0.629 | 0.332 |  |  |
| K-562 (chronic myeloid leukaemia, suspension) |  |  |  |  | 0.757 | 3.42 |  |  |  |  |  |  |  |  |
| KATOIII (stomach, semi-adherent) |  |  |  |  |  |  | 0.986 | > 5 |  |  | 0.694 | 0.415 |  |  |
| KP-N-YN (neuroblastoma, adherent) | 0.877 | > 16 |  |  | 0.885 | > 10.2 | 0.985 | > 5 | 0.968 | > 16 | 0.654 |  |  |  |

| Cell Line | AUC (GSK-650394) | IC50 (GSK-650394) [µM] | AUC (Bexarotene) | IC50 (Bexarotene) [µM] | AUC (NPK76-II-72-1) | IC50 (NPK76-II-72-1) [µM] | AUC (XAV 939) | IC50 (XAV 939) [µM] | AUC (BMS-345541) | IC50 (BMS-345541) [µM] | AUC (AZD7762) | IC50 (AZD7762) [µM] | AUC (YK 4-279) | IC50 (YK 4-279) [µM] |
| --- | --- | --- | --- | --- | --- | --- | --- | --- | --- | --- | --- | --- | --- | --- |
| M059J (glioma, adherent) | 0.916 | > 16 | 0.978 | > 8 | 0.839 | 7.86 | 0.974 | > 5 | 0.889 | > 16 | 0.822 | 1.29 |  |  |
| MM1S (myeloma, suspension) |  |  |  |  |  |  |  |  |  |  | 0.669 | 0.36 |  |  |
| MZ2-MEL (melanoma, adherent) | 0.762 |  | 0.897 | > 8 | 0.957 | > 10.2 | 0.967 | > 5 | 0.882 | > 16 | 0.876 | > 2 |  |  |
| NCI-H1650 (lung adenocarcinoma, adherent) |  |  |  |  |  |  |  |  |  |  |  |  | 0.78 | 5.52 |
| NCI-H2066 (small cell lung carcinoma, adherent) |  |  |  |  |  |  | 0.958 | > 5 |  |  |  |  | 0.867 | > 10 |
| NCI-H2122 (lung adenocarcinoma, adherent) | 0.656 | 2.63 | 0.779 | 3.04 | 0.945 | > 10.2 | 0.732 | 1.36 | 0.954 | > 16 | 0.539 | 0.159 |  |  |
| NCI-N87 (stomach, adherent) |  |  |  |  |  |  | 0.904 | > 5 |  |  | 0.762 | 1.03 |  |  |
| OCI-LY7 (B-cell lymphoma, suspension) |  |  |  |  |  |  |  |  |  |  | 0.261 | 0.0329 |  |  |
| OV-7 (ovary, adherent) |  |  |  |  | 0.912 | > 10.2 |  |  | 0.833 | > 16 | 0.732 | 0.823 |  |  |
| RCC-ER (kidney, adherent) |  |  |  |  | 0.986 | > 10.2 | 0.933 | > 5 | 0.905 | > 16 | 0.587 | 0.222 |  |  |
| RCC-FG2 (kidney, adherent) |  |  |  |  | 0.944 | > 10.2 | 0.824 | 4.13 | 0.905 | > 16 | 0.715 | 0.61 |  |  |
| RCC-JF (kidney, adherent) |  |  |  |  | 0.917 | > 10.2 | 0.94 | > 5 | 0.856 | 15.5 | 0.553 | 0.177 |  |  |
| RCC-MF (kidney, adherent) |  |  |  |  | 0.936 | > 10.2 | 0.909 | > 5 | 0.806 | 11.2 | 0.594 | 0.245 |  |  |
| RPMI-7951 (melanoma, adherent) | 0.883 | > 16 | 0.987 | > 8 | 0.914 | > 10.2 | 0.984 | > 5 | 0.859 | 12.6 | 0.625 | 0.273 |  |  |
| SJSA-1 (bone, adherent) | 0.832 | 12.1 | 0.923 | > 8 | 0.911 | > 10.2 | 0.979 | > 5 | 0.889 | > 16 | 0.678 | 0.421 |  |  |
| SK-MEL-28 (melanoma, adherent) | 0.984 | > 16 | 0.938 | > 8 | 0.988 | > 10.2 | 0.985 | > 5 | 0.94 | > 16 |  |  |  |  |
| SK-N-AS (neuroblastoma, adherent) | 0.982 | > 16 | 0.983 | > 8 | 0.981 | > 10.2 | 0.982 | > 5 | 0.833 | 12.6 | 0.627 | 0.296 |  |  |
| SNU-175 (large intestine, suspension) |  |  |  |  | 0.809 | 4.94 |  |  | 0.811 | 7.89 |  |  |  |  |
| SNU-C2B (large intestine, adherent) | 0.916 | > 16 | 0.923 | > 8 | 0.815 | 7.98 | 0.978 | > 5 | 0.823 | 13.6 | 0.723 | 0.665 |  |  |
| TE-4 (oesophagus, adherent) |  |  |  |  | 0.976 | > 10.2 | 0.931 | > 5 | 0.905 | > 16 | 0.521 | 0.143 |  |  |
| TK10 (kidney, adherent) | 0.904 | > 16 | 0.975 | > 8 | 0.943 | > 10.2 | 0.953 | > 5 | 0.902 | > 16 | 0.667 | 0.405 |  |  |
| U-2-OS (osteosarcoma, adherent) | 0.979 | > 16 | 0.955 | > 8 | 0.983 | > 10.2 | 0.964 | > 5 | 0.945 | > 16 | 0.553 | 0.177 |  |  |
| YMB-1-E (breast, adherent) |  |  |  |  | 0.967 | > 10.2 |  |  | 0.923 | > 16 |  |  |  |  |
| ZR-75-30 (breast, adherent) |  |  |  |  |  |  | 0.981 | > 5 |  |  | 0.946 | > 2 |  |  |
